# From PubChem BioAssay AID686978 (National Center for Advancing Translational Sciences (NCATS), 2013)
# Values joined by “and” are separate entries in the source; they are usually repeats but may differ in a detail not shown here. Equal entries are not always repeated. Among all 420,000 compounds or so, about 64,000 (15%) were called active. Inconclusive results, whose numbers are uncertain, are shown with a selection of clear calls. Calls come from the whole dose curve; as a rule, active = well fitted inhibition curve with a large enough effect; inconclusive = small, poorly fitted or top-dose-only effect; inactive = flat fitted curve, though single readings scatter. A potency beside an inconclusive call is a rough fit, not a confirmed value.
# Assay: qHTS for Inhibitors of human tyrosyl-DNA phosphodiesterase 1 (TDP1): qHTS in cells in absence of CPT; note: nearly all actives have a fitted effect of over 55% in size
# Details: DT40 Tdp1-/- hTDP1 cells, no CPT, ATP luminescence, 48 h; activity change, negative = growth inhibition: at 46.2 µM (top of the series) unless noted
# Procedure, shortened: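 Luminescent ATP content (CellTiter-Glo) served as the growth readout. Knockout chicken DT40 cells expressing human TDP1 were exposed to compounds without camptothecin for a minimum 48 hr at 37 °C.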
# % is set by controls: 0 for no effect and ±100 for the full control effect; potency is the fitted concentration of half-maximal effect; tags give direction and shape of the fitted curve.
Structure (SMILES),"activity change, negative = growth inhibition",Potency
Cc1ccc(CNC(=O)C(CC(C)C)NS(=O)(=O)c2ccc3c(c2)oc(=O)n3C)cc1 (stereo not drawn),inactive: -19.8%,–
CCOC(=O)[C@]12CCCC=C1N(Cc1ccccc1)C(=O)[C@H](CC(=O)N1CCCCCC1)C2,–,"inconclusive: 29.1 µM [inhibitor, single point]"
CC(C)(C)c1ccccc1NC(=O)Nc1nc(C(N)Cc2ccc(F)cc2)cs1 (stereo not drawn),–,active: 20.6 µM
COc1ccc(-c2nnc(SCc3nc4ccccc4s3)n2C(C)C)cc1,–,active: 20.6 µM
CC1CCCC(C)N1C(=O)COC(=O)CNS(=O)(=O)c1ccc2ccccc2c1 (stereo not drawn),inactive: 5.04%,–
CN1OC[C@@H]2CN(C(=O)c3cccc4ccccc34)[C@H](c3ccccc3Br)C[C@@H]21,inactive: 4.74%,–
CCOC(=O)c1cnn2c(C(F)(F)F)cc(-c3ccccc3)nc12,inactive: -26.6%,–
Cc1ccc(Cc2nc3ccccc3nc2SCC(=O)Nc2ccc3c(c2)OCO3)cc1,–,"inconclusive: 10.3 µM [inhibitor, partial curve]"
CCC(=O)Nc1nnc(SCC(=O)Nc2ccc3c(c2)OCCO3)s1,–,"inconclusive: 10.3 µM [inhibitor, partial curve]"
Cc1ccccc1-c1nsc(SCC(=O)Nc2ccc3c(c2)OCO3)n1,–,"inconclusive: 20.6 µM [inhibitor, single point]"
Cc1ccc(S(=O)(=O)CCNC(=O)Cc2ccc(Cl)cc2)cc1,inactive: -14.2%,–
Cc1ccc(S(=O)(=O)NCCS(=O)(=O)N2CCN(c3ccccc3)CC2)cc1,–,"inactive and inconclusive: 29.1 µM [inhibitor, single point]"
CN(C)c1nc(Nc2ccc(Cl)c(Cl)c2)nc(N(C)C)n1,–,active: 10.3 µM
O=C(NC1CCCCC1)c1sc(N2CCOCC2)nc1-c1ccccc1,–,"inconclusive: 23.1 µM [inhibitor, partial curve]"
CC(=O)c1ccc(NC(=O)CCSc2nc(-c3ccco3)cc(C(F)(F)F)n2)cc1,–,"inconclusive: 13 µM [inhibitor, partial curve]"
COc1ccc(C)cc1-n1cnc2sc(C)c(C)c2c1=O,–,"inconclusive: 18.4 µM [inhibitor, single point]"
C/C(=N\NC(=O)c1ccccc1[N+](=O)[O-])c1ccc(Br)s1,inconclusive: -34.3% [inhibitor],–
O=C(CSC1=NC2(CCCCC2)N=C1c1ccccc1)Nc1ccc2c(c1)OCCO2,–,"inconclusive: 29.1 µM [inhibitor, single point]"
O=C(NCCCN1CCCC1=O)c1ccc2c(=O)n(Cc3ccco3)c(=S)[nH]c2c1,–,"inconclusive: 20.6 µM [inhibitor, single point]"
CC(=O)N1CCC(C(=O)Nc2ccc(S(=O)(=O)N3CCCCC3)cc2)CC1,–,"inconclusive: 8.2 µM [inhibitor, partial curve]"
Cc1cc2cc(CN(Cc3nnnn3C3CCCCC3)CC3CCCO3)c(=O)[nH]c2cc1C (stereo not drawn),–,"inconclusive: 16.4 µM [inhibitor, partial curve]"
Cc1c(S(=O)(=O)c2cccc(Cl)c2)nnn1-c1cccc(C(F)(F)F)c1,–,"inconclusive: 29.1 µM [inhibitor, single point]"

Structure (SMILES),"activity change, negative = growth inhibition",Potency
O=C(c1ccco1)N1CCN(C(=O)c2ccc(-c3ccc(Cl)cc3)o2)CC1,–,"inconclusive: 29.1 µM [inhibitor, single point]"
O=C(NCC1CCCO1)c1ccc(N2CCCCC2)c([N+](=O)[O-])c1 (stereo not drawn),inactive: 17.3%,–
CC(C)C[C@H]1COc2cccc(N3CCC[C@H]3CO)c2S(=O)(=O)N1,inactive: -20.5%,–
Nc1ccc(C(=O)N2CCN(S(=O)(=O)c3ccc4c(c3)OCCCO4)CC2)cc1[N+](=O)[O-],–,"inconclusive: 25.9 µM [inhibitor, single point]"
CCCCn1c(N)c(N(CC)C(=O)c2cc(S(=O)(=O)N3CCN(CC)CC3)ccc2Cl)c(=O)[nH]c1=O,inactive: -8.92%,–
Cc1ccc(C(C)C)cc1OCC(=O)N/N=C/c1ccc2c(c1)OCCO2,–,"inconclusive: 23.1 µM [inhibitor, single point]"
Cc1cnc(SCC2CCCO2)nc1C1CCCN(C(=O)c2ccc(S(N)(=O)=O)cc2)C1 (stereo not drawn),–,"inconclusive: 20.6 µM [inhibitor, single point]"
O=c1c2ccccc2nc(COc2ccccc2)n1/N=C/c1ccc(O)c(O)c1,–,active: 10.3 µM
Cc1oc(-c2ccccc2NC(=O)c2ccsc2)nc1CN(C)Cc1ccc2c(c1)CCCN2C,–,"inconclusive: 16.4 µM [inhibitor, single point]"
COC(=O)c1ccc(-n2nnnc2SCC(=O)N2CCCCC2)cc1,inactive: -16.1%,–
O=C(NCC1COc2ccccc2O1)c1ccc(Cl)c(S(=O)(=O)N2CCCC2)c1 (stereo not drawn),–,"inconclusive: 14.6 µM [inhibitor, partial curve]"
Cc1nnc(N/N=C/c2ccco2)n1N,inactive: 4.96%,–
C=CCN=C1N[C@@H](c2cccc(C(F)(F)F)c2)C(C(=O)OC)=C(C)N1CC,–,"inconclusive: 16.4 µM [inhibitor, single point]"
CCCCn1c(N)c(N(CC)C(=O)c2ccc(C#N)cc2)c(=O)[nH]c1=O,inactive: -3.93%,–
C=CCn1c(SCC(=O)NC2CCCC2)nc2ccccc21,–,"inconclusive: 23.1 µM [inhibitor, single point]"
CC(C)c1ccc(NC(=O)C2CCCN(S(=O)(=O)c3cccc4cccnc34)C2)cc1 (stereo not drawn),–,active: 16.4 µM
CCCc1ccc2oc(C(=O)N3CCNC(=O)C3CC(=O)OC)c(C)c2c1 (stereo not drawn),–,"inconclusive: 25.9 µM [inhibitor, single point]"
COC(=O)c1c(-c2ccc(Cl)cc2)noc1N1CCN(c2ccc(C)cc2C)CC1,–,"inconclusive: 18.4 µM [inhibitor, single point]"
CCOC(=O)Cc1ccc(NC(=O)N2CCOc3ccc(C)cc32)cc1,–,"inconclusive: 25.9 µM [inhibitor, single point]"
CCc1ccc(NC(=O)C(=O)NNC(=O)c2cccs2)cc1,–,"inconclusive: 32.6 µM [inhibitor, partial curve, poor fit]"
O=C(OCC(=O)N1CCN(c2ccccc2)CC1)c1ccc(Cl)nc1,inconclusive: -37.9% [inhibitor],–
